According to the supplement of paper PMC7125110:
± gives the standard error. This sample is rich in variants without activity.

B1: glmS ribozyme (parent)
chain: AUAAAAGCGCCAGAACUACAGAAAUGUAGUUGACGAGGAGGAGGUUUAUCGAAUUUUCGGCGGAUGCCUCCAAA

What was measured:
Conditions in all cases: with glucosamine-6-phosphate
[1] = variants of: B1; test: self-cleavage kobs at 40 uM GlcN6P; higher = faster cleavage; RNA array
Procedure, shortened: (§1)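 kobs was derived by fitting per-tile medians to one- or two-exponential decays after normalising signals to baseline and to non-cleaving reference variants. Those signals came from barcoded ribozyme variants transcribed in situ by E. coli RNA polymerase on sequenced MiSeq chips, followed through a hybridised Cy3 probe at 37 °C and imaged over ~14 h. Glucosamine-6-phosphate (40 μM to 10 mM) in HEPES/KCl/Mg(OAc)2 buffer was flowed in. Weighted Michaelis–Menten fits across concentrations then gave kcat and KM.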

[2] = variants of: B1; test: self-cleavage kobs at 10000 uM GlcN6P; higher = faster cleavage; RNA array
Procedure, shortened: as §1

[3] = variants of: B1; test: self-cleavage kobs at 640 uM GlcN6P; higher = faster cleavage; RNA array
Procedure, shortened: as §1

[4] = variants of: B1; test: self-cleavage kobs at 160 uM GlcN6P; higher = faster cleavage; RNA array
Procedure, shortened: as §1

[5] = variants of: B1; test: self-cleavage kobs at 2500 uM GlcN6P; higher = faster cleavage; RNA array
Procedure, shortened: as §1

Variant	self-cleavage kobs at 40 uM GlcN6P [1] [s⁻¹]	self-cleavage kobs at 10000 uM GlcN6P [2] [s⁻¹]	self-cleavage kobs at 640 uM GlcN6P [3] [s⁻¹]	self-cleavage kobs at 160 uM GlcN6P [4] [s⁻¹]	self-cleavage kobs at 2500 uM GlcN6P [5] [s⁻¹]
AUAAAAGCGCCAAAACUACAGAAAUGUAGUUGACGAGGAGGAGGUUUAUCGAAUCUUCGGCGGAUGACUCUAAA [G13A U55C C67A C71U]	< 1e-05	< 1e-05	–	–	–
AUAAAAGCGCCAGGGCUACAGAAAUGUAGUUGACGAGGAGGAGGUUUAUCGAAUUUUCGGCGGAUGCCUCCAAA [A14G A15G]	0.00218 ± 0.00029	0.109 ± 0.035	0.0134 ± 0.0029	0.0049 ± 0.0015	0.0102 ± 0.0027
AUAAAAGCGCCAGGACUACAGAAAUGUAGUUGACGAGGAGGAGGUUUAUCAAAUUUUCGGCGGAUGCCUCCAAA [A14G G51A]	< 1e-05	–	–	–	–
AUAAAAGCGCCAUAACUACAGAAAUGUAGUUGACGAGGAGGAGCUUUAUCGAAUUUUCGGCGGAUGCCUCCAAA [G13U G44C]	< 1e-05	< 1e-05	< 1e-05	< 1e-05	–
AUAAAAGCGCCAGUACUACAGAAAUGUAGUUGACGAGGAGGAGGUUUAUCGAAUUUUCGGCGGUUGCCUCUAAA [A14U A64U C71U]	< 1e-05	–	–	–	–
AUAAAAGCGCCAUAACUACAGAAAUGUAGUUGACGAGGAGGAGGUUUAUGGAAUUUUCGGGGGAUGCCUCCAAA [G13U C50G C61G]	8.16e-05 ± 1.3e-05	–	–	–	–
AUAAAAGCGCCAGCACUACAGAAAUGUAGUUGACGAGGAGGAGGUUUAUCGAAUUUUCGGCAGAUGCCUCCAAA [A14C G62A]	< 1e-05	< 1e-05	< 1e-05	–	–
AUAAAAGCGCCAGCACUACAGAAAUGUAGUUGACUAGGAGGAGGUUUUUCGAAUUUUCGGCGGAUGCCUCCAAA [A14C G35U A48U]	< 1e-05	–	–	–	–
AUAAAAGCGCCAGUACUACAGAAAUGUAGUUGACGAGGAGGAGGUUUCUCGAAUAUUCGGCGGAUGCCUCCAAA [A14U A48C U55A]	< 1e-05	–	–	–	–
AUAAAAGCGCCAGCACUACAGAAAUGUAGUUGACGAGGAGCAGGGUGAUCGAAUUUACGGCGGAUGCCUCCAAA [A14C G41C U45G U47G U57A]	< 1e-05	< 1e-05	< 1e-05	< 1e-05	< 1e-05
AUAAAAGCGCCAUAACUACAGAAAUGUAGUUGACGAGGAGGAGGUUUAUCGAAUUUUCGGCGGAUGCAUCCAAA [G13U C68A]	< 1e-05	–	–	–	–
AUAAAAGCGCCACAACUACAGAAAUGUAGUUGACGAGGAGGAGGUUUAUCGAAUUUUCGGCGGAUGCCUCUAAA [G13C C71U]	< 1e-05	–	–	–	–
AUAAAAGCGCCAGUACUACAGAAAUGUAGUUGACGAGGAGGAGGUUUAUCGCAUUUUCGGCGGAUGCCUCGAAA [A14U A52C C71G]	< 1e-05	–	< 1e-05	–	–
AUAAAAGCGCCAUAACUACAGAAAUGUAGUUGACGAGGAGGAGGUUUAUCGAAUUUUCCGCGGAAGCCUCCAAA [G13U G59C U65A]	< 1e-05	–	–	–	–
AUAAAAGCGCCAGGACUACAGAAAUGUAGUUGACGAAGAGGAGGUUUAUCGAAAUUUCGGCGGAUGCCUCCAAA [A14G G37A U54A]	7.89e-05 ± 1.6e-05	–	–	–	–
AUAAAAGCGCCAUAACUACAGAAAUGUAGUUGACGAGGAGGAAGUUUAUCGAAUUUUCGGCGGAUGCCUCCAAA [G13U G43A]	< 1e-05	< 1e-05	< 1e-05	< 1e-05	–
AUAAAAGCGCCACAACUACAGAAAUGUAGUUGACGAGGAGGGGGUUUUUCGAAUUUUCGGCGGAUGCCUUCAAA [G13C A42G A48U C70U]	< 1e-05	–	< 1e-05	< 1e-05	–
AUAAAAGCGCCAGCACUACAGAAAUGUAGUUGACGAGGAGGAAGUUUAUCGAAUUUUCGGCGGAUGCCUCCAAA [A14C G43A]	< 1e-05	–	–	–	–
AUAAAAGCGCCAGGUCUACAGAAAUGUAAUUGACGAGGAGGAGGUUUAUCGAAUUUUCGGCGGAUGCCUCCAAA [A14G A15U G29A]	3.49e-05 ± 1.3e-05	0.00133 ± 0.00028	–	–	–

Variant	self-cleavage kobs at 40 uM GlcN6P [1] [s⁻¹]	self-cleavage kobs at 10000 uM GlcN6P [2] [s⁻¹]	self-cleavage kobs at 640 uM GlcN6P [3] [s⁻¹]	self-cleavage kobs at 160 uM GlcN6P [4] [s⁻¹]	self-cleavage kobs at 2500 uM GlcN6P [5] [s⁻¹]
AUAAAAGCGCCACAACUACAGAAAUGUAGUUGACGCGGAGGAGGUUUAUCGAAUUUUCGGCGGAUGCCUCGAAA [G13C A36C C71G]	< 1e-05	–	< 1e-05	–	–
AUAAAAGCGCCAGUACUACAGAAAUGUAGUUGACGAAGAGGAGGUUUAUCGAAUUUUCGGCGGAGGCCUCCAAA [A14U G37A U65G]	< 1e-05	–	–	–	–
AUAAAAGCGCCACAACUACAGAAAUGUAGUUGCCGCGGAGGAGGUUUAUCGAAUUUUCGGCGGAUGCCUCCAAA [G13C A33C A36C]	< 1e-05	–	–	–	–
AUAAAAGCGCCACAACUACAGAAAUGUAGUUGACGAGGAGGAGGUUUAUCGAAUUUUCGGCGGAUGACUCCAAA [G13C C67A]	< 1e-05	–	–	–	–
AUAAAAGCGCCAGUUCUACAGAAAUGUAGUUGACGAGGAGGAGAUUUAUCGAAUUUUCGGGGGAUGCCUCCAAA [A14U A15U G44A C61G]	< 1e-05	< 1e-05	< 1e-05	–	–
AUAAAAGCGCCAGCACUACAGAAAUGUAGUUGACGAGGAGGAGGUUUAUCGAAUGUUCGGCGGAUGCCUCCAAA [A14C U55G]	9.05e-05 ± 2.8e-05	0.00435 ± 0.0012	–	–	–
AUAAAAGCGCCACAACUACAGAAAUGUAGUUUACGAGAAAGAGGUUUAUCGAAUCUUCGGCGGAUGCUUCCAAA [G13C G32U G38A G40A U55C C68U]	< 1e-05	< 1e-05	–	–	–
AUAAAAGCGCCAUAACUACAGAAAUGUAGUUGACGAGGAGAAGGUUUAUCGAAUUUUCGGCGGAUGCCUCCAAA [G13U G41A]	< 1e-05	–	–	< 1e-05	–
AUAAAAGCGCCAGGACUACAGAAAUGUAGUUGACGCGGUCGAGGUUUAUCGAAUUUUCGGCGGAUGCCUCCAAA [A14G A36C A39U G40C]	< 1e-05	< 1e-05	–	–	–
AUAAAAGCGCCAGUACUACAGAAAUGUAGUUGACGAGGAGGAGGUUUCUCCAAUUUUCGGCGGAGGCCUCCAAA [A14U A48C G51C U65G]	< 1e-05	< 1e-05	–	–	–
AUAAAAGCGCCAGCACUACAGAAAUGUAGUUGACGAGGACGAGGUUUAUCGAAUUUUCGGCGGAUGCUUCCAAA [A14C G40C C68U]	< 1e-05	–	< 1e-05	–	–
AUAAAAGCGCCAUAACUACAGAAAUGUAGUUGACGAGGAGGGGGUUUACCGAUUUUUCGGCGGAUGCCUCCAAA [G13U A42G U49C A53U]	< 1e-05	–	–	–	< 1e-05
AUAAAAGCGCCAGGACUACAGAAAUGUAGUUGACGAGGAGGACGUUUAUCGAAUUUUCGGCGGAUGCCUCCAAA [A14G G43C]	< 1e-05	–	< 1e-05	< 1e-05	–
AUAAAAGCGCCAGGACUACAGAAAUGUAGCUGACGAGGAGGAGGUUUAUCGAAUUUUCGGCGAAUGCCUCCAAA [A14G U30C G63A]	< 1e-05	< 1e-05	–	–	–
AUAAAAGCGCCAUAACUACAGAAAUGUAGUUGACAAGGAGGAGGAUUAUCGAAUUUUCGGCGGGUGCCUCCAAA [G13U G35A U45A A64G]	< 1e-05	< 1e-05	< 1e-05	–	< 1e-05
AUAAAAGCGCCAGGACUACAGAAAUGUAGUUGACGAGGAGGCGUUUUUUCGAAUUUUCGGCAGAUGCCUCCAAA [A14G A42C G44U A48U G62A]	< 1e-05	–	–	–	–
AUAAAAGCGCCAGUACUACAGAAAUGUAGUUGACGAGGAGGAGGUUUAUCGAAUUUUCGGUGGAGGCCUCCAAA [A14U C61U U65G]	< 1e-05	–	–	–	–
AUAAAAGCGCCAGGACUACAGAAAUGUAGUUGACGAGGAGGAGGUUGAUCGAAUUUUGGGCGGAUGCCUCUAAA [A14G U47G C58G C71U]	4.07e-05 ± 2e-05	–	–	–	–
